Data taken from PMC4336329 (PLoS ONE, 2015).
Among all 310,000 compounds or so, about 2,200 (0.71%) showed an effect of 50% or more. Effects have a minus sign here. Some of the results follow.

target: human ether-à-go-go-related gene (hERG) potassium channel (human, UniProt Q12809); assay: primary screen, population patch clamp on CHO cells stably expressing hERG
Sequence (Q12809 whole entry, looked up): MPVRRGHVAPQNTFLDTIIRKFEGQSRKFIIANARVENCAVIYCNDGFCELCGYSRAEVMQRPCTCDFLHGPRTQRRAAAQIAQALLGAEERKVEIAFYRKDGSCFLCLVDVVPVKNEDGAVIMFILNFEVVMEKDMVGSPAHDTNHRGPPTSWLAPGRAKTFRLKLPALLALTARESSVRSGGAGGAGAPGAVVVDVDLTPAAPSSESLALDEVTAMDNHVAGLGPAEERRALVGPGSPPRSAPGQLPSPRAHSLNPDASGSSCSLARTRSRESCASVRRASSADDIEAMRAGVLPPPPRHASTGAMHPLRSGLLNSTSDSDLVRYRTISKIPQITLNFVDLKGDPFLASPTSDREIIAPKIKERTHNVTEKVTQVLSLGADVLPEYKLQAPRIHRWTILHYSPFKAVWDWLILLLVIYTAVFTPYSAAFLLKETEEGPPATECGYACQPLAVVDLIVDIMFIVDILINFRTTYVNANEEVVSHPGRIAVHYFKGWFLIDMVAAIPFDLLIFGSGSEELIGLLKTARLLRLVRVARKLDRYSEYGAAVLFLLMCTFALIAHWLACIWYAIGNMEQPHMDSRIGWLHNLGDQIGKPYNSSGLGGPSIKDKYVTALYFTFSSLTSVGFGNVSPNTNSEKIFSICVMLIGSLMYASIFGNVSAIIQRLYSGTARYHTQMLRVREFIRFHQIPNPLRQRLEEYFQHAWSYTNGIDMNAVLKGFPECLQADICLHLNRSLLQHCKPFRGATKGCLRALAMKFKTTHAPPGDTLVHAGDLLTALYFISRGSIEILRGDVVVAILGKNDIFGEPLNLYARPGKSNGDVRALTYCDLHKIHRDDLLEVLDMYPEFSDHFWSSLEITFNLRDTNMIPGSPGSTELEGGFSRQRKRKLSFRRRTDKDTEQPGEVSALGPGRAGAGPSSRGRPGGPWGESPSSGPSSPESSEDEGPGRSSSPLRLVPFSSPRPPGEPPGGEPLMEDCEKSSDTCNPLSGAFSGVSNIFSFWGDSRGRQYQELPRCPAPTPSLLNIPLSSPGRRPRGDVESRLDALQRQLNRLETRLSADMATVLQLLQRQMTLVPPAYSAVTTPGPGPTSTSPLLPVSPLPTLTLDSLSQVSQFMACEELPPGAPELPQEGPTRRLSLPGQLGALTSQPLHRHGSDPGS

Compound | hERG current change (%, negative = inhibition) at 1uM [%]
O=C(CCNC(=O)c1ccc(Cl)cc1)NC1CCCc2ccccc21 (centres unmarked) | 8.63
Cc1cccc(NC(=O)C(=O)NCCCN2CCOCC2)c1 | 9.45
Cc1nc(N)nc(Nc2ccc(C#N)cc2)c1Br | 8.67
CCOc1ccccc1NC(=O)CN1C(=O)NC(Cc2c[nH]c3ccccc23)C1=O (centres unmarked) | -2.29
C#CCOc1c(Cl)cc(/C=N/O)cc1OC | 11.2
COc1ccc(S(=O)(=O)c2c[nH]c(=S)[nH]c2=O)cc1Cl | 16.4
O=c1oc2ccccc2n1CCc1ccccc1 | -6.61
FCCCOc1ccc(-c2nccc(-c3ccccn3)n2)cc1 | 10.8
COCCNC(=O)c1cc(Br)ccc1Cl | 2.21
Cc1sc2nc(C(C)Nc3ccccc3N3CCOCC3)[nH]c(=O)c2c1C (centres unmarked) | 18.4
O=C(CCN1C(=O)/C(=C\c2cccc(Br)c2)SC1=S)N1CCOCC1 | 8.21
CCN(CC)S(=O)(=O)c1csc(C(=O)OCC(=O)c2ccccc2)c1 | 6.93
Cc1cccnc1CCNC(=O)c1ccc(OC2CCN(Cc3ccccn3)CC2)cc1 | 2.16
COc1ccc(-c2c(C#N)c(N)nc3c2CCc2ccccc2-3)cc1OC | 4.73
CCOC(=O)c1csc(N)n1.Cl | 7.65
CCc1nc2ccccc2c(NC(=O)CN2CCC(C)CC2)c1C.O=C(O)C(=O)O | -7.26
COc1cc(C(=O)Oc2cc(N)n(S(=O)(=O)c3ccc(F)cc3)n2)cc(OC)c1OC | 14
CN1CCN(c2ccc(NC(=O)c3ccc(-c4ccc(Br)cc4)o3)cc2)CC1 | 9.92
CCOc1ccc(CNC(=O)CCn2c(=O)oc3ccccc32)cc1 | -15.9
O=C(Nc1ccc(S(=O)(=O)Nc2nccs2)cc1)c1cc(-c2ccccc2Cl)nc2ccccc12 | 8.31
CCCCNC(=O)C1CCN(S(=O)(=O)c2cnc[nH]2)CC1 | 9.56
CCOc1[nH]c(/N=C/c2ccco2)c(C#N)c1C#N | 8.12
CCOc1ccccc1NC(=O)CSc1nnnn1-c1ccc(C(=O)OC)cc1 | 2.85

Compound | hERG current change (%, negative = inhibition) at 1uM [%]
COc1ccc2c(c1)CCN1C2CCN2C(=O)CCC21 (centres unmarked) | 11.1
O=C(NCCC1=CCCCC1)c1cc(-c2ccccn2)nc2ccccc12 | 17
Cc1ccc(N2CC(NS(=O)(=O)c3cccs3)CC2=O)cc1C (centres unmarked) | 14.9
CC(C)c1ccc(NC(=O)C2C3C=CC4(O3)C2C(=O)N(CCCN2CCCCC2)C4C(=O)NC2CCCCC2)cc1 (centres unmarked) | 13.7
Cc1ccc(/C=C/C(=O)NCc2cccs2)o1 | 7.15
COc1ccc(N=C(NN)c2ccc3ccccc3n2)cc1 | 7.45
COc1cccc(C(=O)NC(C)c2cccc3ccccc23)c1OC (centres unmarked) | 7.59
O=C(CN1C(=O)c2cccc3cccc(c23)C1=O)NCCCO | 9.32
COc1ccc(Nc2nnc(-c3ccc(C)cc3)c3ccccc23)cc1C(=O)N1CCCCC1 | 4.22
Cc1cc(C)c(S(=O)(=O)Cc2ccc(Cl)cc2)c(=O)[nH]1 | 9.42
O=[N+]([O-])c1cccc(-c2ccc(/C=N/n3c(-c4ccccc4)n[nH]c3=S)o2)c1 | 7.65
O=C(CN1CCN(c2ccccn2)CC1)Nc1ccccc1Br | 1.89
Cc1cc(C)c2nc(C(F)(F)F)nc(NCCCN3CCOCC3)c2c1 | 9.96
O=C(CN1CCN(c2cccc(C(F)(F)F)c2)CC1)NCc1ccccc1 | -2.08
CCCC(=O)c1c[nH]c(C(=O)NCc2cccnc2)c1 | 12.1
CC1=NCCc2c1[nH]c1ccccc21 | -0.861
O=C(O)C1CC(=O)N(Cc2ccc(F)cc2)C1 (centres unmarked) | 3.81
CCCCn1c(N)c(N(CC(C)C)C(=O)CCCc2nc3ccccc3s2)c(=O)[nH]c1=O | 15.3
Cc1ccc(S(=O)(=O)NC(C)(C)CN2CCCCC2)cc1 | 3.13
CCN1CCN(c2ccc(S(=O)(=O)N3CCCCC3)cc2NC(=O)c2ccc(OC(F)F)cc2)CC1 | -56.4
Cc1ccccc1OCC(=O)OCn1nnc2ccccc2c1=O | 11.9
Cc1ccccc1S(=O)(=O)N(CC(O)CN1C(=O)NC(C)(C)C1=O)c1ccccc1 (centres unmarked) | 15.1
O=[N+]([O-])c1ccc(Cl)cc1CNc1ccc(F)c(F)c1 | 16.2

Compound | hERG current change (%, negative = inhibition) at 1uM [%]
N#C/C(=N\Nc1cccc(F)c1)C(=N)N1CCCCCC1 | 1.26
CC(=O)NCC(c1cccs1)S(=O)(=O)c1ccc(F)cc1 (centres unmarked) | 15.1
COc1ccc(-c2ccc(-c3nnn(CC(=O)N4CCOCC4)n3)cc2)cc1 | -2.74
COc1ccccc1Nc1nn2c(=O)c3ccc(C(=O)N4CCC(C)CC4)cc3nc2s1 | 23.4
Cc1ccc(C(=O)NCCCNC(=O)c2ccc(C)nc2)cc1 | 12.8
CCCN(C(=O)COC(=O)Cn1c(=O)oc2ccccc21)c1c(N)n(Cc2ccccc2)c(=O)[nH]c1=O | 7.44
N#Cc1c(-c2cccc(F)c2)cc(-c2ccccc2)nc1Br | 13.8
Cc1noc2ncnc(Oc3cc(Cl)ccc3Cl)c12 | 12.8
O=C(O)C(=O)O.O=S(=O)(c1ccc(Cl)cc1)N(CCCN1CCOCC1)Cc1cccs1 | -10.2
COC(=O)c1ccccc1NC(=O)CCC(=O)N1CC(C)Oc2ccc(C)cc21 (centres unmarked) | 10
CCOc1ccccc1NC(=O)CCn1cccc1 | 14.1
COc1cccc(-c2cc(C(=O)Nc3ccn(Cc4ccc(C)cc4)n3)no2)c1 | 7.67
Cc1coc2c(C)c3oc(=O)c(CCC(=O)NCCC(=O)O)c(C)c3cc12 | 13.5
CCOC(=O)C(NC(=O)C(Cc1ccc(N(CCCl)CCCl)cc1)NC(C)=O)C(C)C (centres unmarked) | 7.62
COc1ccc(N2CCN(C(=O)CCNS(=O)(=O)c3ccc(C)cc3)CC2)cc1 | -2.06
COc1cccc(NC(=O)COC(=O)c2c(-c3ccccc3)noc2C)c1 | 11.2
Cc1noc(C)c1COc1ccc(C(=O)OCC(N)=O)cc1 | 12.3
COc1ccc(NC(=O)CC(C(=O)O)N2CCCCC2)cc1 (centres unmarked) | 0.647
CC1CC(C)CN(C(=O)c2nn(C)c3c2CSc2ccccc2-3)C1 (centres unmarked) | 12.5
Cc1ncc([N+](=O)[O-])n1CCOC(=O)NC(Nc1ccc(F)cc1)C(Cl)(Cl)Cl (centres unmarked) | -29.3
COc1ccc(N2C(=O)CSC2c2ccccc2[N+](=O)[O-])cc1 (centres unmarked) | 10.3
CC(C)(C)OC(=O)c1c(N)n(Cc2ccco2)c2nc3ccccc3nc12 | 4.64
O=[N+]([O-])c1ccc(C(O)CN=Cc2ccc(O)cc2O)cc1 (centres unmarked) | 13.8

Compound | hERG current change (%, negative = inhibition) at 1uM [%]
Cc1ccc(S(=O)(=O)CCC(=O)Nc2ccc3nc(C)sc3c2)cc1 | -2.6
COc1ccc2nc(C)cc(Nc3ccc(N4CCOCC4)cc3)c2c1.Cl | -25.1
O=c1c2ccccc2nc2sc(Nc3cccc(Cl)c3)nn12 | 3.99
COc1ccc(CN2C(=O)c3ccccc3C2=O)cc1C(=O)N(C)CC(=O)Nc1ccc(F)cc1 | 10.4
O=C(NCCCn1ccnc1)C(=O)NCC1OCCN1S(=O)(=O)c1ccccc1 (centres unmarked) | 12.2
O=C1N(c2ccccc2)C[C@@H]2C[C@@H](c3cccs3)N3CCC[C@@]123 | 6.57
COc1ccccc1C(c1c(O)nc(SC)[nH]c1=O)c1c(O)nc(SC)[nH]c1=O | 16.2
Oc1ccc(Br)cc1-c1ccn[nH]1 | 5.4
C=CCn1c(SCC(=O)NNC(=O)Nc2ccc(C)cc2)nnc1-c1ccccc1 | 1.92
O=C(NC1CCS(=O)(=O)C1)c1ccc(N2CCCCC2)c([N+](=O)[O-])c1 (centres unmarked) | 11.9
Cc1cc(=O)oc(C)c1C(=O)Nc1cccnc1Cl | 12.8
CC(C)CCN1CC(C(=O)NCc2ccc(F)cc2)CC1=O (centres unmarked) | 3.61
O=C(O)c1ccc(CSc2nnc(-c3ccccc3Cl)n2-c2ccccc2)cc1 | 11.2
COc1ccc(NC(=O)CCn2cccc2)cc1 | -0.263
CCCCn1c(N)c(N(CCOC)C(=O)c2cc(-c3ccc(C)cc3)nc3ccccc23)c(=O)[nH]c1=O | 2.24
O=C(OCc1nc2ccccc2s1)C1CCN(C2=NS(=O)(=O)c3ccccc32)CC1 | -7.74
CCN1CCN(S(=O)(=O)c2cc(OC)c(Cl)cc2OC)CC1 | 9.91
O=C(NC1CC(=O)N(c2ccccc2)C1)C(=O)c1c[nH]c2ccccc12 (centres unmarked) | -1.49
S=C(Nc1ccc(Nc2ccccc2)cc1)N1CCN(c2ncccn2)CC1 | 13.7
COc1ccc(/C=C(/NC(=O)c2cccc([N+](=O)[O-])c2)C(=O)O)cc1OC | 13.6
